The source of these data is paper PMC7819943, “Rice protein-binding microarrays: a tool to detect cis-acting elements near promoter regions in rice”.

This is one part of the list.

This test has as its target T1, OsWOX13 (Oryza sativa, UniProt Q5QMM3 1-267).
T1 sequence: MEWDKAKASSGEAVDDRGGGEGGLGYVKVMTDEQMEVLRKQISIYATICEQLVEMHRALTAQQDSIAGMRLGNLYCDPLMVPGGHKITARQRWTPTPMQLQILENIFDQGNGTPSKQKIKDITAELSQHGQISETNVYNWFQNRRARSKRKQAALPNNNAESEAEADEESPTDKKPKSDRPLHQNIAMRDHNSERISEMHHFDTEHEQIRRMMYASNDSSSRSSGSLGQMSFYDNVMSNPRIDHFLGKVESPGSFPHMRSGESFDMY
The experiment in a line: protein-binding microarray (RPBM); PBS, 2% BSA, 51.3 ng/ul salmon testes DNA, 50 uM zinc acetate, 200 nM TF, 25 C, 1 h; high values mean tight binding. The conditions noted are these: protein: recombinant; tags: N-terminal polyhistidine and DsRed monomer fusion (pET32a); label: CyDye5-dUTP incorporated in the synthesized complementary strand; 3' TTTTT single-stranded linker to array surface; dsDNA, one strand shown. Put shortly: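 An Axon 4000B scanner gave the binding signal as per-feature fluorescence intensity in arbitrary units. This followed washing of a custom Agilent array that had been incubated for 1 h at 25 °C with 200 nM protein in PBS, 2% BSA, salmon testes DNA and 50 µM zinc acetate. The proteins were transcription factors fused at the N-terminus to polyhistidine and DsRed, expressed in E. coli BL21-CodonPlus and purified on Ni–NTA.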
In the case of “CCGATTCTTTTGTCAAATTTACAATAAACATATACTGCATCGGAGTCACCTAGTGCAG”, the binding signal is 3970 fluorescence intensity (a.u.). Next, “AAGCCTAATTAATCCATCCTTAGCAGATGTGGGTTACCGTCGGAGTCACCTAGTGCAG”: 8630 fluorescence intensity (a.u.); “ACTGATTTGTTTTATTGTTTTGATTTTAATCCTCTCAATTCGGAGTCACCTAGTGCAG”: 38800 fluorescence intensity (a.u.).

For the sequence “CAAAATTGAGGGTAGTTTTGGCCCAGATAAACCTCCTCCACGGAGTCACCTAGTGCAG”, the binding signal was 5910 fluorescence intensity (a.u.).

On to “GCAAAATTGGTTTCATCAACTATTGAGTGGGTGTGCACTGCGGAGTCACCTAGTGCAG”, for which the binding signal was 9640 fluorescence intensity (a.u.).

Turning to “TGCTTGATTTGTCGAATAACAGCCTGTCTGGGAGCATGCCCGGAGTCACCTAGTGCAG”, the binding signal was 24300 fluorescence intensity (a.u.). As to “ATCATGATTGTAAGGTTGGTGTCTATAGTCTTCCAATTATCGGAGTCACCTAGTGCAG”, the binding signal is 24400 fluorescence intensity (a.u.). Then “AATGATTAGCATTCGCGTGGCTTCAGACGAGGAGCCTATACGGAGTCACCTAGTGCAG”, with 13500 fluorescence intensity (a.u.); and “ATCTGACCCAGCAATCAACTCCTACGGTCCAGATTCAATGCGGAGTCACCTAGTGCAG”, with 3820 fluorescence intensity (a.u.). Next, “AAGTTAATTTCATTTCGAGCATGTTTTATTGCCAAAGTTTCGGAGTCACCTAGTGCAG”: 10700 fluorescence intensity (a.u.); “AACGGTATTCAATCAATCACTATCACTTACATACACAATCCGGAGTCACCTAGTGCAG”: 42200 fluorescence intensity (a.u.). As to “ATCTGATGAATAGACACGAATTCCTTTTCTGCGTCACTGGCGGAGTCACCTAGTGCAG”, the binding signal is 11700 fluorescence intensity (a.u.). In the case of “ACATAATTAGGCTCAAAAGATTCGTCTCGCAAAAGTTCCTCGGAGTCACCTAGTGCAG”, the binding signal is 23000 fluorescence intensity (a.u.).

Turning to “ACCATAATTTCACCCATACTCTTAAGTGCAATACTACTCCCGGAGTCACCTAGTGCAG”, the binding signal is 8560 fluorescence intensity (a.u.). Turning to “AAAACGTAATTTCGAGATCCAATCCACACCTATTGAGTAACGGAGTCACCTAGTGCAG”, the binding signal is 4010 fluorescence intensity (a.u.).

Take “TATAAGTTAATGCTCCATCAATTTTCATTTACATCGACAGCGGAGTCACCTAGTGCAG”: the binding signal is 3340 fluorescence intensity (a.u.). As to “AAGAATTGATGCACCTACGATCAAAGATACTTATCTCCGTCGGAGTCACCTAGTGCAG”, the binding signal was 3290 fluorescence intensity (a.u.). For the sequence “AAAATATTGATTTTCGCAGACGAAAAGAGAGCTCCATCCCCGGAGTCACCTAGTGCAG”, the binding signal is 7550 fluorescence intensity (a.u.). For “ATACTGACCCTTGATTGCATACCATTTAAAAGGGAAACTTCGGAGTCACCTAGTGCAG”, the binding signal is 9800 fluorescence intensity (a.u.). On to “CACAAATTAAACTCTAACACTTTCTATCACGACAACATGTCGGAGTCACCTAGTGCAG”, for which the binding signal was 14100 fluorescence intensity (a.u.). Consider “AGTCCTACACTCTTTGCTAATTAGCTAGTTTGCCCCAACACGGAGTCACCTAGTGCAG”, for which the binding signal was 7020 fluorescence intensity (a.u.).

“CAAAATTGACATGTTAAGAGTAAGCCAAGATGTTTGGCAGCGGAGTCACCTAGTGCAG”: the binding signal was 31600 fluorescence intensity (a.u.).

Turning to “GTTAATTGGTTAATTCCATTGTTTCGCGCTCGTGGTTTCTCGGAGTCACCTAGTGCAG”, the binding signal is 38900 fluorescence intensity (a.u.). Regarding “CCAGATTACTATAAGCTGAATTATAATAAGCCGATATAGACGGAGTCACCTAGTGCAG”, the binding signal is 3910 fluorescence intensity (a.u.). In the case of “TAAAATAATAGGTTGTTGGATTGAAATATGCCTATCAAAACGGAGTCACCTAGTGCAG”, the binding signal is 5490 fluorescence intensity (a.u.).

As to “ATTTTCACTAATCTATACCTAATTAAATAAGAATTCGTTTCGGAGTCACCTAGTGCAG”, the binding signal was 8000 fluorescence intensity (a.u.). Consider “AATTTAATTTAATTTATGGAGTCTCGTATTTCTTGATTTTCGGAGTCACCTAGTGCAG”, for which the binding signal was 4590 fluorescence intensity (a.u.). Next, “CCAAATTTGGTAATTTAGAATTTGAACTAGCGTGAGAAAACGGAGTCACCTAGTGCAG”: 19800 fluorescence intensity (a.u.). Take “ACTGACAGTTTAGATTCTGAGTAGCTTTGGACGTCCAGCCCGGAGTCACCTAGTGCAG”: the binding signal was 8670 fluorescence intensity (a.u.). Then “CATTGCAATTAATCATCCATGTAAAATTTCTGACTGTTCTCGGAGTCACCTAGTGCAG”, with 14400 fluorescence intensity (a.u.); and “CAACAGTAAATTAACCAACGTTTACTGCATCCTCAGCTAACGGAGTCACCTAGTGCAG”, with 8530 fluorescence intensity (a.u.); and “TAAAACTATTTAATTACCAAACTATTCACGTGATGAGATGCGGAGTCACCTAGTGCAG”, with 14900 fluorescence intensity (a.u.). For the sequence “GAAATTATCTCCTCAGTTTTGACAGTATCCTTGCCGTGCGCGGAGTCACCTAGTGCAG”, the binding signal is 4370 fluorescence intensity (a.u.). Consider “ATTGATTTAGGAATGATTTTAATGCAAAGCTATATATATTCGGAGTCACCTAGTGCAG”, for which the binding signal is 11900 fluorescence intensity (a.u.).

For “TGCAAGGACAATTAATTGTACCCCGCGTCGCGTCGCTTACCGGAGTCACCTAGTGCAG”, the binding signal was 3950 fluorescence intensity (a.u.).

In the case of “CATATTAATAGCAAATGATAGCAAACAAACACATATATTACGGAGTCACCTAGTGCAG”, the binding signal is 7040 fluorescence intensity (a.u.).

As to “GTGAATTGGCATGTCAAACTTCTCATAACAAATCAATGCTCGGAGTCACCTAGTGCAG”, the binding signal was 5130 fluorescence intensity (a.u.). Then “AAGTAATTTAGTCAACTCTAAAAGTAACTATGTGTGTGTGCGGAGTCACCTAGTGCAG”, with 17300 fluorescence intensity (a.u.).

In the case of “TGCCGCAATTAGAAGATGATTTCGCTAGAAGAGCTAAAAGCGGAGTCACCTAGTGCAG”, the binding signal was 8340 fluorescence intensity (a.u.). Next, “TGAGCAAATGAGCTTAATTAGACAGAATTAGATAGAGAGACGGAGTCACCTAGTGCAG”: 10700 fluorescence intensity (a.u.); “ACAAATTGAGGGACCCAAAGTGAACTTATTCCAAGGAGGACGGAGTCACCTAGTGCAG”: 11000 fluorescence intensity (a.u.). On to “TGACTAACCTGCCTGATTGTCACAGGTCCCACTAGCTCTTCGGAGTCACCTAGTGCAG”, for which the binding signal is 4260 fluorescence intensity (a.u.).
